The densities may have been worked out from excess volumes.
Assay: xn = mol fraction of the nth substance listed
Conditions: 101 kPa

For CCCCCCCCCC[N+]1(C)CCOCC1.O=S(=O)([N-]S(=O)(=O)C(F)(F)F)C(F)(F)F + CCCCO, the mass density (303.15 K, x2 = 0.405) was 1216 kg/m3, the mass density (303.15 K, x2 = 0.8) was 1063.6 kg/m3 and the mass density (313.15 K, x2 = 0.21) was 1244.1 kg/m3. For the same molecule, the mass density (313.15 K, x2 = 0.405) was 1207.7 kg/m3, the mass density (313.15 K, x2 = 0.603) was 1149.7 kg/m3 and the mass density (313.15 K, x2 = 0.8) was 1055.1 kg/m3. It also gave a mass density (323.15 K, x2 = 0.21) of 1235 kg/m3, a mass density (333.15 K, x2 = 0.21) of 1223.8 kg/m3 and a mass density (333.15 K, x2 = 0.405) of 1192 kg/m3. For the same molecule, the mass density (333.15 K, x2 = 0.603) was 1133.1 kg/m3 and the mass density (333.15 K, x2 = 0.8) was 1036 kg/m3.

With CCCCCCCCCC[n+]1ccn(C)c1.O=S(=O)([N-]S(=O)(=O)C(F)(F)F)C(F)(F)F + CCCCO the mass density (303.15 K, x2 = 0.402) was 1209.6 kg/m3, the mass density (303.15 K, x2 = 0.602) was 1152 kg/m3 and the mass density (303.15 K, x2 = 0.801) was 1048.9 kg/m3. For the same molecule, the mass density (313.15 K, x2 = 0.602) was 1142.1 kg/m3, the mass density (313.15 K, x2 = 0.801) was 1040.2 kg/m3 and the mass density (323.15 K, x2 = 0.402) was 1192.4 kg/m3. For the same molecule, the mass density (323.15 K, x2 = 0.801) was 1031.2 kg/m3, the mass density (333.15 K, x2 = 0.197) was 1222.7 kg/m3 and the mass density (333.15 K, x2 = 0.402) was 1183.8 kg/m3. It also gave a mass density (333.15 K, x2 = 0.602) of 1120.5 kg/m3.

Source: a compilation of properties of binary mixtures (doi:10.1021/jp307276y)
